SMILES strings stand for the structures. Among all 310,000 compounds or so, about 2,200 (0.71%) showed an effect of 50% or more. The effect is printed as a negative number. The list shows a part of the results.

Consider 26 molecules from paper PMC4336329 (PLoS ONE, 2015).

Chain of human ether-à-go-go-related gene (hERG) potassium channel (Q12809 whole entry, looked up): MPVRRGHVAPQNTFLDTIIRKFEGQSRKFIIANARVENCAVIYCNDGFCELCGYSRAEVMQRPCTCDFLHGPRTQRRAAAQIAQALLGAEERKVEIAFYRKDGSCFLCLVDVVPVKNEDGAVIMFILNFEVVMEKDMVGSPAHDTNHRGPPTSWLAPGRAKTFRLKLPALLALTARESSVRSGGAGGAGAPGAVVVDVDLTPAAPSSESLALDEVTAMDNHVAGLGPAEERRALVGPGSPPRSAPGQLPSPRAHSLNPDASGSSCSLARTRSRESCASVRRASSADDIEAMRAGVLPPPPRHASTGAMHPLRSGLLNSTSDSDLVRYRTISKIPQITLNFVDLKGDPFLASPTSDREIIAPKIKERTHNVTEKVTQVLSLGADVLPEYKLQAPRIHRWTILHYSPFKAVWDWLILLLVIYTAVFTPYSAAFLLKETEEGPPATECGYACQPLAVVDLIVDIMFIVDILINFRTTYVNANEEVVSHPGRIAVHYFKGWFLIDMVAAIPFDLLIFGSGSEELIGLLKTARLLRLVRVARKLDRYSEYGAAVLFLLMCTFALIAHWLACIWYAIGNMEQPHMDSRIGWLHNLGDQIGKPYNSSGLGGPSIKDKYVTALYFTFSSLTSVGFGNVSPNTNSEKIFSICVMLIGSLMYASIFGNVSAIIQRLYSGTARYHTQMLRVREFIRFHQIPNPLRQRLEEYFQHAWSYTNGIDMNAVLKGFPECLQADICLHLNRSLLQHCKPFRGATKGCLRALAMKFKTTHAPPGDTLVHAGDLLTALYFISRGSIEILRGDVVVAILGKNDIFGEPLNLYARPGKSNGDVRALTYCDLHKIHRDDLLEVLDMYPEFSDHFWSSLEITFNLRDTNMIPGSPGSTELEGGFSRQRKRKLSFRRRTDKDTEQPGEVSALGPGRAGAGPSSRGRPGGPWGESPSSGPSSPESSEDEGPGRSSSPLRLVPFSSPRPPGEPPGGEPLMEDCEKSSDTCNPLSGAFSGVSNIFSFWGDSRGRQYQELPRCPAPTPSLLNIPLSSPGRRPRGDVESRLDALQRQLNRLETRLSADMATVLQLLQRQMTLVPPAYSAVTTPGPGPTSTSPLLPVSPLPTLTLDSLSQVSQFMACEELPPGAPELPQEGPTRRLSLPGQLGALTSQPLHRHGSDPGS

This assay concerns the target human ether-à-go-go-related gene (hERG) potassium channel (human, UniProt Q12809). Put plainly: primary screen, population patch clamp on CHO cells stably expressing hERG.
Turning to `CC(COS(N)(=O)=O)Cc1ccc(C(F)(F)F)cc1` (centres unmarked), the “hERG current change (%, negative = inhibition) at 1uM” value was found to be 8.1%.

Turning to `COc1ccccc1/C=C1\C(=O)NC(=S)N(c2ccccc2)C1=O`, the “hERG current change (%, negative = inhibition) at 1uM” value is recorded as 14.8%.

As for `CC(C)N1CCN(Cc2nc3ccccc3s2)CC1CCO` (centres unmarked), the “hERG current change (%, negative = inhibition) at 1uM” value is -4.26%. The same measure for `Cc1c(C(=O)NC(C)C)oc2c1-c1[nH]ncc1CC2`: 11%; for `O=C(Nc1cccc(NC(=O)C2CCCO2)c1)C1CCCO1` (centres unmarked): 5.51%; for `CCn1c(CSCc2ccc(C)cc2)n[nH]c1=S`: 21.6%. The value for `Cc1ccccc1NC(=O)CSc1nnc2ccc(-c3ccncc3)nn12` was -22.8%. The value for `COc1cc(CNCCNC(=O)c2cccs2)cc(OC)c1OC` was 11.6%. With `O=C(Nc1ccc(Br)cc1C(=O)O)c1ccc2c(c1)C(=O)N(Cc1ccccc1)C2=O`, the “hERG current change (%, negative = inhibition) at 1uM” value was 7.53%. The same measure for `Cc1cc([N+](=O)[O-])nn1CC(=O)NCCCN1CCOCC1`: 7.37%; for `Cc1onc(-c2c(F)cccc2Cl)c1C(=O)Nc1cccc(S(=O)(=O)NC2=NCCC2)c1`: 12.7%; for `CC1C/C(=N/N=C2/NC(=O)CS2)CC(C)(C)C1` (centres unmarked): 7.26%. `Cc1ccc(S(=O)(=O)N2CCOCCOCCOCCOCCOCC2)cc1`: the “hERG current change (%, negative = inhibition) at 1uM” value is recorded as 3.2%. As for `Cc1ccc(-c2n[nH]c(=S)n2/N=C/c2ccc(C(=O)O)cc2)cc1`, the “hERG current change (%, negative = inhibition) at 1uM” value stood at 8.04%. The same measure for `NC(=O)Cn1nc([N+](=O)[O-])nc1Oc1ccccc1F`: 7.7%. The same measure for `CCCCN(CC)S(=O)(=O)c1c(C)[nH]c(=O)[nH]c1=O`: 7.23%; for `CC(C)OCCCn1c(NN)nc2ccccc2c1=O`: 15.2%. The value for `COc1ccc2nc(SCC(C)=O)c(C#N)cc2c1` was 1.85%. Turning to `O=C(Nc1cccnc1)c1ccc(Cl)c(S(=O)(=O)N2CCCC2)c1`, the “hERG current change (%, negative = inhibition) at 1uM” value was 15.7%. The same measure for `Cc1[nH]c(=O)[nH]c(=O)c1S(=O)(=O)N1CCCC(C(=O)NCc2ccco2)C1` (centres unmarked): 5.98%; for `C=CCn1c(C)cc(C(=O)COC(=O)/C=C/c2c(C)nn(C3CCS(=O)(=O)C3)c2Cl)c1C` (centres unmarked): 13.8%; for `CCOC(=O)c1ccc2[nH]c(C)cc(=O)c2c1`: 2.81%. Take `CCOC(=O)N1CCN(C(=O)c2cc3cc(F)ccc3[nH]2)CC1`: the “hERG current change (%, negative = inhibition) at 1uM” value amounted to 9.05%.

For `CC(C)CCN1C(=O)c2ccc(C(=O)Nc3ccc(O)cc3C(=O)O)cc2C1=O`, the “hERG current change (%, negative = inhibition) at 1uM” value stood at 8.64%. As to `C#CCN(C(=O)CC1C(=O)NCCN1C/C=C/c1ccccc1)C1CCCCC1` (centres unmarked), the “hERG current change (%, negative = inhibition) at 1uM” value is 12.5%.

With `COc1ccc(Nc2nc(-c3c[nH]c4ccccc34)cs2)cc1`, the “hERG current change (%, negative = inhibition) at 1uM” value is on record as 10.4%.
